Results published in PubChem BioAssay AID1476 (National Center for Advancing Translational Sciences (NCATS), 2009).
Screen size: about 200,000 compounds; about 4,500 (2.2%) were called active. This list was built around the results that the source calls inconclusive (neither active nor inactive); the mix of calls is not that of the screen. The call rests on the fitted dose curve; in most records, active means well fitted inhibition curve with a large enough effect; inconclusive means small, poorly fitted or top-dose-only effect, or effect the other way; inactive means flat fitted curve, though single readings scatter. A potency beside an inconclusive call is a rough fit, not a confirmed value.

Target: Cruzipain (Trypanosoma cruzi) (UniProt P25779)
Assay: qHTS Assay for Promiscuous and Specific Inhibitors of Cruzain (without detergent); further: nearly all actives have a fitted effect of over 40% in size;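 on max response, negative = inhibition: plate controls were enzyme without inhibitor for no effect and buffer without enzyme for full effect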
Conditions: purified cruzain, Z-FR-AMC fluorescence, no detergent
Procedure, shortened: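 Purified cruzain at 1.5 nM, pre-incubated 15 min with compound at room temperature in 100 mM sodium acetate pH 5.5, 5 mM DTT, 0.00005% Triton X-100. Reaction started with 2 uM Z-FR-AMC; AMC fluorescence increase over 60 s gives rate.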
Potency means the concentration at half of the fitted maximal effect; tags describe the fitted curve by direction and shape.

Chain of UniProt P25779 (P25779 whole entry, looked up): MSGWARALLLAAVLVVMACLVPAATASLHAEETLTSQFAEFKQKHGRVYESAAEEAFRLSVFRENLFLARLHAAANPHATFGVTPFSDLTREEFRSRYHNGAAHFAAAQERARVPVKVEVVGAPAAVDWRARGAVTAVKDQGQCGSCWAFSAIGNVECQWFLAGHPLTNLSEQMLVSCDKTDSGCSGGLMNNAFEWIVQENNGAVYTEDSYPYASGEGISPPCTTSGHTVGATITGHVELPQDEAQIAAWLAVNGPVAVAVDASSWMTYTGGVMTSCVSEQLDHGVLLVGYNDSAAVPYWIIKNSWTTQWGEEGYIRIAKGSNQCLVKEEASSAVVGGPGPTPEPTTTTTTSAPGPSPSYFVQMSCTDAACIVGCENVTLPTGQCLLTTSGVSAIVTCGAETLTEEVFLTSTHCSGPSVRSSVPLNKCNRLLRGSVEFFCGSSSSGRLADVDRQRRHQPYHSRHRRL

| SMILES | Potency | max response, negative = inhibition |
| --- | --- | --- |
| COc1ccc(-c2csc(N3C(=N)SCC3=O)n2)cc1 | inconclusive: 39.8 µM [inhibitor, single point] |  |
| Cc1ccc(C)c(N2CCN(CC(=O)Nc3ccc([N+](=O)[O-])cc3C(=O)Nc3ccccc3F)CC2)c1 | inconclusive: 31.6 µM [inhibitor, single point] |  |
| Cc1ccc(C(=O)N/C(N)=N/c2nc3ccccc3o2)cc1 | inconclusive: 39.8 µM [inhibitor, single point] |  |
| CCC1=C(OC(=O)N(CC)CC)N2C(=O)OC(=NCC3CC3)[C@]2(C)[C@H]2C1=CC[C@H]1C(=O)N(c3ccccc3)C(=O)[C@H]12 | inconclusive: 31.6 µM [activator, single point] |  |
| CCOc1ccc(C(=O)c2oc3ccccc3c2NC(=O)c2cc(=O)c3ccc(C)cc3o2)cc1 |  | inactive: 9.91% |
| CN(C)c1ccc(NC(=O)c2ccc([N+](=O)[O-])cc2Cl)cc1 | inconclusive: 25.1 µM [inhibitor, single point] |  |
| O=C(Nc1ccc2nc(-c3cccnc3)[nH]c2c1)C12CC3CC(CC(C3)C1)C2 | inconclusive: 25.1 µM [activator, partial curve] |  |
| COc1ccc(-c2nnc(SCC(=O)N3c4ccccc4Sc4ccccc43)o2)cc1 | inconclusive: 39.8 µM [inhibitor, single point] |  |
| Cc1cccc2cc3c(N)c(C(=O)N4CCc5ccccc54)sc3nc12 | inconclusive: 39.8 µM [inhibitor, single point] |  |
| COc1ccc(C=C(c2ccc(OC)cc2)c2ccc(OC)cc2)cc1 | active: 12.6 µM |  |
| Cc1ccc(N2C(=O)c3cccc(Oc4ccc(Cl)cc4)c3C2=O)c(C)c1 | inconclusive: 39.8 µM [inhibitor, single point] |  |
| Cc1cccc(OCc2nnc(SCC(=O)N3c4ccccc4Sc4ccc(Cl)cc43)o2)c1 | active: 12.6 µM |  |
| O=C(O)[C@H]1[O][Sb][O][C@@H](C(=O)O)C1O (stereo partly specified) |  | inactive: 2.98% |
| COc1ccc(Nc2oc(/C=C/c3cc(OC)c(OC)c(OC)c3)nc2C#N)cc1 | inconclusive: 39.8 µM [activator, single point] |  |
| Cc1ccc2nc(-c3ccccc3)cc(C(=O)N3CCc4ccccc4C3)c2c1 | inconclusive: 39.8 µM [inhibitor, single point] |  |
| COc1ccc(NC(=O)C2CCN(c3ccc(Sc4ccc(C)cc4)nn3)CC2)cc1 |  | inactive: 1.17% |
| CCCCCn1c(CN(C)Cc2ccccc2)nc2c1c(=O)n(C)c(=O)n2C | inconclusive: 7.94 µM [activator, single point] |  |
| O=c1c2c3c(sc2nc(NCCO)n1Cc1ccco1)CCCCC3 | inconclusive: 39.8 µM [activator, single point] |  |
| CC(=O)N1CCc2c(sc3c2c(=O)n(Cc2ccccc2)c(=O)n3Cc2ccccc2Cl)C1 | inconclusive: 25.1 µM [activator, partial curve] |  |
| Cc1nn(Cc2ccc(Cl)cc2)c(Cl)c1/C=N/NC(=O)c1cccnc1 | inconclusive: 39.8 µM [activator, single point] |  |
| O=C(Nc1nc2c(s1)CCCC2)c1nn(Cc2ccccc2)c(=O)c2ccccc12 | inconclusive: 39.8 µM [inhibitor, single point] |  |

| SMILES | Potency | max response, negative = inhibition |
| --- | --- | --- |
| Cc1ccc(Cl)cc1N1CCN(C(=O)COc2cc(=O)n(C)c3ccccc23)CC1 | inconclusive: 39.8 µM [activator, single point] |  |
| COc1cc2c(cc1OC)C(COc1ccccc1OC)N(C(=O)c1ccc(S(=O)(=O)N(C)C)cc1)CC2 (stereo unspecified) | inconclusive: 25.1 µM [activator, single point] |  |
| Cc1ccc(Nc2nc(CSc3nnnn3-c3ccccc3)cs2)cc1 | inconclusive: 31.6 µM [inhibitor, single point] |  |
| Cc1ccc(-c2nnc(Nc3ccc(O)cc3)c3ccccc23)cc1S(=O)(=O)NC(C)(C)CO |  | inactive: -12.7% |
| COc1ccc(S(=O)(=O)Nc2nc3ccccc3nc2Nc2ccc3c(c2)OCO3)cc1 | inconclusive: 25.1 µM [inhibitor, single point] |  |
| Cc1ccc(NC(=O)c2cc(NC(=O)c3ccco3)ccc2N2CCOCC2)cc1 | inconclusive: 39.8 µM [activator, single point] |  |
| CCOc1ccccc1NC(=O)CN(c1cc(C)cc(C)c1)S(=O)(=O)c1c(C)nn(C)c1C | inconclusive: 12.6 µM [activator, partial curve] |  |
| Cc1cccc(N2CCN(C(=O)CCNS(=O)(=O)c3ccc4c(c3)CCN4C(=O)C3CC3)CC2)c1C | inconclusive: 39.8 µM [activator, single point] |  |
| CN(CC[C@@H](Oc1ccc(-c2ccccc2)cc1)c1ccc(F)cc1)CC(=O)O | inconclusive: 20 µM [activator, partial curve, poor fit] |  |
| COc1ccc(-c2noc(CSc3nc4ccccc4c(=O)n3-c3ccc(C)cc3)n2)cc1 | active: 15.8 µM |  |
| Oc1oc(-c2cccc3ccccc23)nc1/C=N/c1nccs1 | inconclusive: 39.8 µM [inhibitor, single point] |  |
| COc1ccc(S(=O)(=O)N(CC(=O)Nc2ccc(C)cc2)c2ccc(C)cc2)cc1OC |  | inactive: -3.35% |
| Cc1c(NC(=O)COC(=O)c2cc3c4ccccc4n(C)c3s2)c(=O)n(-c2ccccc2)n1C | inconclusive: 39.8 µM [activator, single point] |  |
| Nc1nc(Nc2ccc(Cl)cc2)nc2ccccc12 | active: 10 µM |  |
| COc1ccc(-c2noc(COc3ccc(C)cc3C)n2)cc1OC | inconclusive: 39.8 µM [activator, single point] |  |
| CCOC(=O)c1scc(-c2ccc(C)cc2)c1S(=O)(=O)N1CCN(c2ccccc2)CC1 |  | inactive: 15.5% |
| CCCc1cc(=O)[nH]c(SCC(=O)OCc2ccccc2)n1 |  | inactive: -0.512% |
| Cc1cccc(Cn2c(SCC(=O)Nc3ccccc3)nc3c2c(=O)[nH]c(=O)n3C)c1 | inconclusive: 39.8 µM [activator, single point] |  |
| Cc1oc(-c2ccccc2Cl)nc1CSCC(=O)NC1CC1 |  | inactive: -4.55% |
| CCCc1cc(=O)n2[nH]c(Cc3ccccc3)nc2n1 | inconclusive: 0.199 µM [inhibitor, full curve, poor fit] |  |
| Cc1cccc(Nc2nnc(-c3ccc(C)c(S(=O)(=O)N4CCOCC4)c3)c3ccccc23)c1 |  | inactive: -3.21% |

| SMILES | Potency | max response, negative = inhibition |
| --- | --- | --- |
| CCOC(=O)c1ccc(NC(=O)Cn2nnc(-c3ccc(C)cc3)n2)cc1 | inconclusive: 31.6 µM [inhibitor, single point] |  |
| Cc1ccc(/C=C2\CCC3=C2OC(N)=C(C#N)C3c2ccc(C)cc2)cc1 (stereo unspecified) | active: 25.1 µM |  |
| CCOc1ccc(S(=O)(=O)Nc2ccc3c(c2)CCCN3S(=O)(=O)c2ccc(C)cc2)cc1 | inconclusive: 31.6 µM [inhibitor, single point] |  |
| COc1ccc(NC(=O)Cc2coc3cc(C)c(C(C)C)cc23)cc1S(=O)(=O)N1CCOCC1 | inconclusive: 25.1 µM [activator, single point] |  |
| Cc1ccc(NS(=O)(=O)c2ccc3[nH]c4c(c3c2)CCCCCC4)cc1C | inconclusive: 39.8 µM [inhibitor, single point] |  |
| CCCCN(CCCNC(=O)C1CCN(S(=O)(=O)N2CCOCC2)CC1)c1ccccc1 | inconclusive: 31.6 µM [activator, single point] |  |
| O=C(NCC(c1cccnc1)N1CCc2ccccc21)c1cccc(F)c1 (stereo unspecified) | inconclusive: 39.8 µM [activator, single point] |  |
| CCn1c(SCC(=O)Nc2ccccc2)nnc1-c1ccc(S(=O)(=O)N2CCOCC2)cc1 | inconclusive: 39.8 µM [activator, single point] |  |
| Cc1nc(N)sc1-c1csc(Nc2ccccc2)n1 | active: 12.6 µM |  |
| OC(COc1ccc2c(c1)CCC2)CN1CCN(c2cccc(Cl)c2)CC1 (stereo unspecified) |  | inactive: 1.52% |
| COC(=O)[C@@]1(Cc2ccccc2)[C@H]2c3cc(C(=O)N4CCCC4)n(Cc4ccc(O)c(OC)c4)c3C[C@H]2CN1C(=O)c1ccccc1 | inconclusive: 25.1 µM [activator, partial curve] |  |
| COc1ccc(NC(=O)C2(c3ccc(NC(=O)c4ccc(OC(C)=O)cc4)cc3)CCCC2)cc1 | inconclusive: 3.16 µM [inhibitor, full curve] |  |
| COc1cc(NC(=O)c2noc3c2CC(C(C)(C)C)CC3)cc(OC)c1OC (stereo unspecified) | inconclusive: 6.31 µM [activator, single point] |  |
| COc1ccc(CNC(=O)COC(=O)c2cc(-c3ccc(Cl)s3)nc3ccccc23)cc1 |  | inactive: -18% |
| COc1ccc(NC(=O)CCC(=O)OCC(=O)c2ccc(Oc3ccc([N+](=O)[O-])cc3)cc2)cc1 | inconclusive: 39.8 µM [inhibitor, single point] |  |
| COc1cccc([C@@H]2Oc3ccc(Br)cc3C(=O)[C@H]2OC(=O)N[C@H]2CCCc3ccccc32)c1 | inconclusive: 31.6 µM [inhibitor, single point] |  |
| CC(=O)Nc1sc2c(c1C(c1ccc(F)cc1)N1CCOCC1)CCCC2 (stereo unspecified) | inconclusive: 31.6 µM [activator, partial curve] |  |
| O=[N+]([O-])c1ccc(N2CCN(c3ccccc3O)CC2)c(Cl)c1 | inconclusive: 39.8 µM [inhibitor, single point] |  |
| CC(C)C[C@@H](CC(=O)N[C@@H](CCCN)CC(=O)N[C@@H]1CCNC[C@H]1C(=O)N[C@H](CC(=O)N[C@@H](CCC(=O)O)CC(=O)O)Cc1c[nH]c2ccccc12)NC(=O)[C@@H]1CCCC[C@H]1N |  | inactive: -8.6% |
